The source of these data is article PMC12040169 (PLOS Biology, 2025).

Structures are written as SMILES. The list shows a part of the results.

In the experiment the test system is T1, C. trachomatis L2/434/Bu expressing GFP (CTL2-GFP).
T1 construct: L2/434/Bu GFP intracellular growth in HeLa cells
Details: species or system HeLa; C. trachomatis total inclusion area by high-content imaging, normalised to DMSO. Conditions: total inclusion area; 28.5 h, 10 µM; inhibitor. In short, it runs like this:
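Host cell viability was gauged from Hoechst-stained nuclei counts, while chlamydial growth was taken from total inclusion area and inclusion number per well. Cells were fixed and imaged by high-content microscopy once bulk GFP and resorufin fluorescence had been measured.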
Regarding `O=C1CC(C(=O)Nc2c(Cl)cccc2Cl)C2(CCCCC2)O1` (stereo not shown) [CBK058445], the “% of control remaining” value worked out at 68.6547. Take `Cc1noc(NS(=O)(=O)c2ccc(NC(=O)COc3cccc(Br)c3)cc2)c1C` [CBK264086]: the “% of control remaining” value turned out to be 27.9665. For `Cc1noc(C)c1S(=O)(=O)Nc1nc(=O)[nH]cc1F` [CBK067569], the “% of control remaining” value was found to be 94.8595. In the case of `CC1=C[C@@H](CNC(=O)NC(C)C)[C@H](C(C)C)C[C@H]1CC(=O)N1CCN(C)CC1` [CBK289047], the “% of control remaining” value was found to be 97.467. For `Cc1nc(-c2cccnc2)[nH]c(=O)c1CC(=O)N(C)C1CCCC1` [CBK304907], the “% of control remaining” value amounted to 33.7883. Turning to `CC(Cc1ccccn1)N(C)C(=O)c1cccc(N2CCCC2=O)c1` (stereo not shown) [CBK282153], the “% of control remaining” value was 78.3095. For the molecule `Cc1nc(-c2ccccc2)sc1CNC(=O)COc1ccc(F)cc1` [CBK092350], the “% of control remaining” value worked out at 111.8. Turning to `CO[C@@H]1CO[C@H]2[C@@H]1OC[C@@H]2Nc1nccc(-c2cccc(C#N)c2)n1` [CBK289532], the “% of control remaining” value was determined as 75.9515. Consider `Nc1ncnc(Nc2cccc(C(F)(F)F)c2)n1` [CBK017403], for which the “% of control remaining” value is listed as 90.785. With `NC(=O)c1ccc(NC(=O)N2CCCCC2CO)cc1` (stereo not shown) [CBK156185], the “% of control remaining” value amounted to 106.424. As to `Cn1ccnc1C(NC(=O)c1cccnc1)c1ccc(F)c(F)c1` (stereo not shown) [CBK283807], the “% of control remaining” value is listed as 104.767. As to `CSc1nncc(-c2ccc(Cl)cc2)n1` [CBK028747], the “% of control remaining” value turned out to be 12.7349.

In the case of `O=[N+]([O-])c1cc(Br)cc(/C=N/Nc2nc3ccccc3[nH]2)c1O` [CBK263486], the “% of control remaining” value is given as 108.384. With `Nc1nnc(Sc2nc3ccccc3nc2N2CCCC2)s1` [CBK093750], the “% of control remaining” value worked out at 122.137. The result for `Cc1ccc(NC(=O)c2ccccc2NS(=O)(=O)c2cccc(C(=O)O)c2)cc1` [CBK296695] reads 113.929; that for `CC(Oc1cccc(Cl)c1)n1cnnc1` (stereo not shown) [CBK022246], 67.9605.

As to `Cc1ccc(-c2csc3ncnc(SCc4csc(C)n4)c23)cc1` [CBK267244], the “% of control remaining” value turned out to be 105.337. On to `Cc1noc(C)c1CN1CC2CCN(c3ccccc3)C2C1` (stereo not shown) [CBK304847], for which the “% of control remaining” value is recorded as 19.3443. Consider `CN1CCC(N2CCN(C(=O)NCc3ccc(Cl)c(Cl)c3)CC2)CC1` [CBK155883], for which the “% of control remaining” value amounted to 82.8291. On to `Cc1nc(C(C)NC(=O)CCc2cnn(C)c2)c(C)s1` (stereo not shown) [CBK307064], for which the “% of control remaining” value amounted to 61.6006. The result for `Cc1ccc2c(c1)oc(=O)n2CCNC(=O)c1cccs1` [CBK284472] reads 35.7337. Consider `COCC1OC(n2cc(C)c(=O)[nH]c2=O)CC1O` (stereo not shown) [CBK201338], for which the “% of control remaining” value was 139.39. On to `CCOc1ccc(-n2c(SCc3nc4ccccc4[nH]3)nc3sc4c(c3c2=O)CCCC4)cc1` [CBK264581], for which the “% of control remaining” value is given as 107.342. As for `CCCCCc1nc(N)c(-c2cccc(Br)c2)c(C#N)c1CCCC` [CBK026574], the “% of control remaining” value stood at 110.811. Regarding `O=C1N=C(NCC2CCCCC2)SC1CC(=O)N1Cc2ccccc2C1` (stereo not shown) [CBK067016], the “% of control remaining” value turned out to be 51.5134.

Turning to `CC(C)(C)NCC(O)COc1cccc2c3c(oc12)CCCC3` (stereo not shown) [CBK008871C], the “% of control remaining” value is 40.9962. As for `O=C(Nc1cccc2ccccc12)C1CCC(C(=O)Nc2cccc3ccccc23)CC1` (stereo not shown) [CBK268706], the figure is 98.8789; as for `CC(=O)C1=C(C)NC(SCC(=O)c2ccc(F)cc2)=C(C#N)C1c1sccc1C` (stereo not shown) [CBK262624], 87.6057; as for `CC1CCN(C(=O)C2CC(=O)N(c3ccc(C(=O)O)cc3)C2)CC1` (stereo not shown) [CBK286568], 76.6226. Regarding `O=C1c2cccc([N+](=O)[O-])c2C(=O)N1c1cc(Cl)cc(Cl)c1` [CBK115326], the “% of control remaining” value amounted to 88.7504. In the case of `CCOc1cc(C(O)c2nnc(-c3ccccc3)o2)ccc1OCC(C)C` (stereo not shown) [CBK132385], the “% of control remaining” value worked out at 109.38.

As for `CCN(CC)C(=O)CN(CCc1ccc(OC)c(OC)c1)C(=O)NCc1cc(C)on1` [CBK160581], the “% of control remaining” value amounted to 99.7844. As to `O=C(/C=C/c1ccccc1)NC(=S)Nc1cccc(-c2nc3ncccc3o2)c1` [CBK263742], the “% of control remaining” value worked out at 96.4334. As for `CN1CCCN(c2nc(-c3cccs3)cn3ccnc23)CC1` [CBK066652], the figure is 82.4816; as for `O=C(CCC1CCCO1)N1CCCC(COc2ccc(F)cc2)C1` (stereo not shown) [CBK282031], 122.674; as for `Cc1nc[nH]c1CN1CCCN(S(=O)(=O)c2ccc(C(F)(F)F)cc2Cl)CC1` [CBK063035], 72.8163. Take `O=C(O)c1cccc(NS(=O)(=O)c2cc(C(F)(F)F)cc(C(F)(F)F)c2)c1` [CBK155725]: the “% of control remaining” value is listed as 92.0481. Turning to `CCc1cc2c(=O)c(-c3nc4ccccc4n3C)c(C)oc2c(CN2CCOCC2)c1O` [CBK262124], the “% of control remaining” value is reported as 112.586.

Turning to `Clc1ccc(CNc2ncc(-c3ccc(N4CCOCC4)cc3)n3ccnc23)cc1Cl` [CBK091229], the “% of control remaining” value worked out at 98.1744. In the case of `Cc1cc(C)c(Oc2nc(=O)n([C@H]3C[C@@H](O)[C@@H](CO)O3)cc2F)c(C)c1` [CBK201184], the “% of control remaining” value came to 102.743. Turning to `CSc1ncc(Cl)c(C(=O)Nc2ccc(S(=O)(=O)N3CCC(Cc4ccccc4)CC3)cc2)n1` [CBK268870], the “% of control remaining” value is 100.172. For the molecule `CCOC(=O)c1ccc(Nc2nnc3nc(C)cc(C)n23)cc1` [CBK267600], the “% of control remaining” value was determined as 99.239. `C[C@@H]1C[C@H](Nc2ccccc2)c2ccccc2N1C(=O)CCC(=O)O` [CBK286820]: the “% of control remaining” value stood at 118.739.

In the case of `COCc1cc(C)nc2sc(C(N)=O)c(N)c12` [CBK018149], the “% of control remaining” value was determined as 59.6488. The result for `CCn1c(=O)[nH]c2cc(C(=O)NCCc3ccccc3)ccc2c1=O` [CBK265773] reads 77.6732; that for `O=C(Cn1c(=O)[nH]c2c(oc3ccccc32)c1=O)Nc1ccccc1` [CBK287818], 117.715. As to `Cc1ncccc1C(=O)NC(c1ccc(F)c(F)c1)c1nccn1C` (stereo not shown) [CBK283809], the “% of control remaining” value was 99.4445. Consider `CN(CC(O)CN1CCOCC1)C(=O)c1cc2sccc2[nH]1` (stereo not shown) [CBK306437], for which the “% of control remaining” value was found to be 33.8459. As to `CCOc1ccc(OCCC#N)cc1` [CBK015880], the “% of control remaining” value came to 38.0134. As for `O=C([C@H]1O[C@H](CCN2CCN(c3ccccn3)CC2)CC[C@@H]1O)N1CCCC1` [CBK288730], the “% of control remaining” value stood at 98.3041. As to `CC(=O)NC(CCC(N)=O)C(=O)N1CC2(CCCC2)c2c(F)cccc21` (stereo not shown) [CBK306412], the “% of control remaining” value turned out to be 45.8231. For `Cc1cc(NC(=O)c2ccc3c(c2)C(=O)N(CC2CCCO2)C3=O)no1` (stereo not shown) [CBK072998], the “% of control remaining” value was 83.2125.

As to `CC(C)(C)NCC(O)COc1c(F)cc(Br)cc1F` (stereo not shown) [CBK020879C], the “% of control remaining” value is recorded as 88.2737. As for `Cn1c(=O)n(CC(=O)NC2CC2)c2cccnc21` [CBK104297], the “% of control remaining” value is on record as 102.526. `Cc1ccccc1-c1ccc(C(=O)NCCc2ccc(S(N)(=O)=O)cc2)c(NCc2cccnc2)n1` [CBK076116]: the “% of control remaining” value was 104.181. On to `O=C(Nc1ccc(Cc2ccncc2)cc1)c1ccc(CSc2ccc(Cl)cc2)cc1` [CBK262526], for which the “% of control remaining” value is recorded as 62.6669. For `Cc1ccc(C(=O)NCc2ccc(-c3n[nH]cc3C(=O)N(C)Cc3ccccc3)cc2)cc1` [CBK285598], the “% of control remaining” value is recorded as 102.262. For `Cc1ccc(Oc2ncccc2[N+](=O)[O-])c(Br)c1` [CBK002822], the “% of control remaining” value is listed as 104.323. The result for `CCCCc1ccc(-c2ccc3ccc(NC(=O)C(C)C)nc3n2)cc1` [CBK073668] reads 111.368.

In the case of `COc1ccc([N+](=O)[O-])cc1NC(=O)c1nc(C)c(C)nc1C(=O)O` [CBK103387], the “% of control remaining” value worked out at 87.4729. Turning to `O=C(O)c1cccc(NS(=O)(=O)c2ccc(Cl)c(C(=O)Nc3ccc(Br)cc3)c2)c1` [CBK263241], the “% of control remaining” value is 99.9506. As for `OC(Cn1cnc(-c2ccccc2)c1-c1ccccc1)Cn1c2ccccc2c2ccccc21` (stereo not shown) [CBK261416], the “% of control remaining” value came out at 102.58. Regarding `COc1cc(-c2cc(N3CCN(CCN4CCCC4)CC3)ncn2)cc(OC)c1OC` [CBK037841], the “% of control remaining” value is recorded as 94.0941. With `Cc1ccc2c(CC(=O)N3CCNCC3c3cnn(C)c3)coc2c1C` (stereo not shown) [CBK304271C], the “% of control remaining” value was determined as 44.972. For `C[N+]1(C)CCCC1c1cc(Br)cnc1N` (stereo not shown) [CBK217873I], the “% of control remaining” value is on record as 96.7047.

On to `O=C1CCCN1CCOc1nccnc1-c1ccc(F)cc1` [CBK106895], for which the “% of control remaining” value came out at 87.9808. In the case of `O=C(/C=C/c1ccco1)Nc1sc2c(c1C(=O)NCc1ccco1)CCC2` [CBK265616], the “% of control remaining” value turned out to be 52.6484. The result for `CCC(C(=O)Nc1ccccc1C(=O)Nc1c(Cl)cccc1Cl)c1ccccc1` (stereo not shown) [CBK266068] reads 87.2304; that for `O=C(c1ccccc1)N1CCC(c2cc3ncccc3[nH]2)CC1` [CBK283385], 114.417. With `Nc1ncc(-c2cccnc2)nc1NCc1ccccc1` [CBK063349], the “% of control remaining” value amounted to 163.437. In the case of `Cc1cc2n(n1)C(c1ccc(C(=O)O)cc1)Nc1ccccc1-2` (stereo not shown) [CBK287000], the “% of control remaining” value is given as 97.4641. As to `CC(=O)N1C[C@@H]2C[C@H](C1)c1ccc(NC(=O)c3ccc(C#N)cc3)c(=O)n1C2` [CBK289202], the “% of control remaining” value worked out at 98.4956.

In the case of `c1ccc2c(c1)NCC21CCNCC1` [CBK022583], the “% of control remaining” value is given as 66.8812. With `COc1cc(S(=O)(=O)NCCOc2ccc(C(=O)O)cc2)c(OC)cc1Cl` [CBK299825], the “% of control remaining” value was determined as 80.8. Consider `CSCC[C@H](NC(=O)Nc1ccc(N2CCC(C)CC2)cc1)C(=O)O` [CBK286743], for which the “% of control remaining” value is on record as 83.698.

With `c1ccc(OCCCCN2CCCC23CCc2[nH]c4ccccc4c2C3)cc1` (stereo not shown) [CBK092200T], the “% of control remaining” value is 67.0491. Regarding `O=C(NC1CCCCC1)N[C@H]1CO[C@H]2[C@@H]1OC[C@@H]2n1cc(CC2CCCCC2)nn1` [CBK289510], the “% of control remaining” value is recorded as 104.02. For the molecule `Cn1ccc2cc(-c3cn4ccnc4c(N4CCOCC4)n3)ccc21` [CBK066696], the “% of control remaining” value came out at 79.9078. For `CCN(CC)CCSc1nc(O)c(-c2ccccc2)c(=O)n1-c1ccccc1` [CBK263335C], the “% of control remaining” value was 96.5958.
